# Data taken from article PMC4336329 (PLoS ONE, 2015).
# Among all 310,000 compounds or so, about 14,000 (4.5%) showed an effect of 50% or more. The effect is printed as a negative number. Some of the results follow.
# Biological target: human ether-à-go-go-related gene (hERG) potassium channel (human, UniProt Q12809)
# Test: primary screen, population patch clamp on CHO cells stably expressing hERG
# 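Note: peak tail current of the secondary pulse compared with the same well before compound.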
# human ether-à-go-go-related gene (hERG) potassium channel, sequence (Q12809 whole entry, looked up): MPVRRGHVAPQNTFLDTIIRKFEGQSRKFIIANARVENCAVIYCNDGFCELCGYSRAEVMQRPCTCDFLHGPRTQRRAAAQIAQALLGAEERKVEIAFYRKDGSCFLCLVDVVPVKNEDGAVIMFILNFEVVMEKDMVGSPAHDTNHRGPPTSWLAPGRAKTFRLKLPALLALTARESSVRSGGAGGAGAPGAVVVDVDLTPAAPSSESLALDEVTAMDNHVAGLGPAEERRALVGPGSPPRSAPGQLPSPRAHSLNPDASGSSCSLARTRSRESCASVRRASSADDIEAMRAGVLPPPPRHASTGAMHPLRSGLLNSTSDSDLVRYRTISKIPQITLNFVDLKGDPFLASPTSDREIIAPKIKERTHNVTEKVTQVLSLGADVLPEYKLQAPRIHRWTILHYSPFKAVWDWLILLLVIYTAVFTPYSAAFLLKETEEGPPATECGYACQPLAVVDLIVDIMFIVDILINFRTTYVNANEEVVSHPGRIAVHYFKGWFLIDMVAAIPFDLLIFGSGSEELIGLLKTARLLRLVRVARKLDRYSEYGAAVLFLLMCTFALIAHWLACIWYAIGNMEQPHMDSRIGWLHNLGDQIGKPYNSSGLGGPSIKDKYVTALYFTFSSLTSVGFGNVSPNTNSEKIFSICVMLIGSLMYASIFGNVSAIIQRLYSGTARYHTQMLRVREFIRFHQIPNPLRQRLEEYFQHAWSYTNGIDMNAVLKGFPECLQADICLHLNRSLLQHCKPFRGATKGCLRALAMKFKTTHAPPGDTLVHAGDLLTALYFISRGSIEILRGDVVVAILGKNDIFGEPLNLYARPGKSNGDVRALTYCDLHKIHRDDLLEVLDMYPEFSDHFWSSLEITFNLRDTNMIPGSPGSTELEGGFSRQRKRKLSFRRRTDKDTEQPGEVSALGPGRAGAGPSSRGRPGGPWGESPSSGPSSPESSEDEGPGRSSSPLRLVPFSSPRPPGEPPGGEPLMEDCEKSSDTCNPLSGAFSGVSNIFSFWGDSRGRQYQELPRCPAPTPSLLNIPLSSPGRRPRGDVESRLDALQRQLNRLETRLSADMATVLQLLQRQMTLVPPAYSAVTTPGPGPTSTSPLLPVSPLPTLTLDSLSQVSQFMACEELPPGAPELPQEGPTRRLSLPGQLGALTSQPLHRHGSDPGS
row,Compound,"hERG current change (%, negative = inhibition) at 10uM"
1,Cc1ccc(CN2CCN(/N=C/c3ccc(Cl)c([N+](=O)[O-])c3)CC2)cc1,-4.43%
2,Cc1oc2c(CN3CCC(C)CC3)c(O)ccc2c(=O)c1-c1ccccc1,-14.7%
3,Cl.Oc1ccc(Nc2ncnc3ccccc23)cc1,23.9%
4,S=C(Nc1ccc(Cl)c(Cl)c1)N1CCCC1,6.78%
5,COc1ccc(C(C)=O)cc1COc1cccc2cccnc12,-9.8%
6,Cc1cc(=O)oc2c3c(cc(OCC(=O)NCc4cccnc4)c12)OC(C)(C)CC3,-23.2%
7,CN(C)CCNC(NC(=O)c1cccs1)C(Cl)(Cl)Cl (stereo not shown),-14%
8,CCc1noc(C)c1C(=O)NCCc1ccc(OC)c(OC)c1,2.06%
9,CCCCn1c(N)c(C(=O)NCCN2CCOCC2)c2nc3ccccc3nc21,-64.1%
10,O=C(CSc1nnc(-c2ccncc2)n1Cc1ccco1)Nc1nc(-c2ccccc2)cs1,-57.4%
11,Cc1[nH]c2ccccc2c1/C=N/NC(=O)c1ccccc1,12.6%
12,Cc1ccc2[nH]c(=O)c(CN(Cc3cccnc3)C(=S)NCCCN(C)C)cc2c1,4.54%
13,O=C(CC1CCCCC1)NCc1ccco1,7.66%
14,CCn1c(N2CCC(C)CC2)nc2c1c(=O)n(C)c(=O)n2C,4.16%
15,O=C(Nc1cccc(S(=O)(=O)N2CCCCC2)c1)c1c2c(nc3ccccc13)CCN(Cc1ccccc1)C2,32.5%
16,Cc1cc(S(=O)(=O)Nc2ccc(C(=O)N3CC(C)OC(C)C3)cc2)ccc1F (stereo not shown),-20.2%
17,COc1ccc(OC(C)C(=O)Nc2ccc([N+](=O)[O-])cc2)cc1 (stereo not shown),3.6%
18,COc1ccccc1/C=C1\C(=O)Nc2ccccc21,2.99%
19,COc1ccc(C(=O)NC2CCN(C(=S)Nc3ccccc3)CC2)cc1,12.7%
20,CC(C)CN1CCN(Cc2c(F)cccc2Cl)CC1CCO (stereo not shown),-10.4%
21,C/C(=C(/NC(=O)c1ccccc1)C(=O)O)c1ccco1,21.4%
22,CC(=O)c1ccc(NC(=O)COC(=O)CCc2ccc(S(=O)(=O)N3CCOCC3)cc2)cc1,-14.4%

row,Compound,"hERG current change (%, negative = inhibition) at 10uM"
1,CCOC(=O)c1sc(S(C)(=O)=O)c2c1CC(C)(C)C/C2=N/O,-7.19%
2,O=[N+]([O-])c1ccc(-c2ccc(/C=N/O)o2)cc1,8.69%
3,COc1ccc(NC(=O)c2ccc3c(c2)C(=O)N(CC2CCCO2)C3=O)c(OC)c1 (stereo not shown),15.1%
4,COC(=O)c1c(C)[nH]c(C(=O)CSc2ccc(Cl)cc2)c1C,19.9%
5,Cc1ccc(CSCC(=O)N2CCOCC2)cc1,8.89%
6,[Br-].c1cc[n+](CCCC[n+]2ccccc2)cc1,6.63%
7,CN1CCN(c2ccc([N+](=O)[O-])c3cccnc23)CC1,-41.5%
8,CC(Cc1ccccc1)NC(=O)Cc1ccc([N+](=O)[O-])cc1 (stereo not shown),-17.8%
9,O=C(NC(=S)Nc1ccc(CN2CCCCC2)cc1)c1ccco1,-45.6%
10,Cc1ccnc(NS(=O)(=O)c2ccc(NC(=O)c3cncc(Br)c3)cc2)n1,3.35%
11,CCc1ccc(CNC(=O)CCc2nc(-c3cccs3)no2)cc1,-19.8%
12,CCc1ccc(-c2nn(Cc3ccccc3)cc2C=O)cc1,-6.26%
13,COc1ccc(-n2c(N)cc(=O)nc2SCC(=O)N2CCN(c3ccccc3)CC2)cc1,9.51%
14,CCOC(=O)c1sc(Nc2nc(C)cc(C)n2)nc1C,10.9%
15,COc1ccccc1N1CCN(C(=O)NCc2ccc(Cl)cc2)CC1,-6.42%
16,COc1ccc(N2C(=O)CSC23C(=O)N(CC(=O)NC2CCCC2)c2ccccc23)cc1 (stereo not shown),7.19%
17,CCc1ccc(NC(=O)Cn2cnc([N+](=O)[O-])c2)cc1,-3.95%
18,O=C(Nc1ccccc1C(=O)O)c1ccccc1,8.69%
19,Oc1ccc(-c2cn3cc(C(F)(F)F)ccc3n2)cc1,-5.82%
20,O=C(CSc1ncn(-c2ccccc2)n1)N1CCc2ccccc21,-0.255%
21,COc1ccc(C(=O)Nn2c(C)nnc2-n2nc(C)cc2C)cc1OC,5.2%
22,COc1ccc(NS(=O)(=O)c2ccc(NC(=O)C(C)(C(F)(F)F)C(F)(F)F)cc2)nn1,7%

row,Compound,"hERG current change (%, negative = inhibition) at 10uM"
1,Cn1c(CSc2ncccn2)nnc1SCC(=O)N1CCCCC1,10.4%
2,CC1CCN(CC(=O)Nc2cccc(Cl)c2)CC1,-18%
3,COc1ccc(/C=C2\CCc3ccccc3C2=O)c(OC)c1OC,-16.1%
4,CCCN(C(=O)C(=O)Nc1ccc2nc3n(c(=O)c2c1)CCCCC3)c1ccc(OCC)cc1,-24.4%
5,O=C(CNC(=O)c1ccc(OC(F)F)cc1)Nc1cccc(S(=O)(=O)N2CCCC2)c1,-70.3%
6,O=C(COC(=O)c1cnccn1)N=c1sccn1Cc1ccccc1Cl,2.2%
7,CC(Sc1nnnn1-c1ccccc1)C(=O)Nc1ccc(N2CCN(C)CC2)cc1 (stereo not shown),-20.4%
8,CCCN1CCN(C(=O)C2CCN(c3nnc(C)c4c(C)n(-c5ccc(C)cc5)nc34)CC2)CC1,-32.3%
9,O=c1c2cc(NC(=S)NC3CCCC3)ccc2nc2n1CCCCC2,-59.6%
10,Cc1cc(NC(=O)CCC(=O)N(Cc2ccc(F)cc2)C(C(=O)NC2CCCC2)c2ccco2)no1 (stereo not shown),0.819%
11,C/C(N)=C(/C#N)C(=O)COc1ncnc2ccccc12,-1.47%
12,O=C(CCN1CCC(c2ccc(Cl)s2)=N1)c1ccc(Cl)s1,13.1%
13,COCCSc1nc(N)c(NC(=O)c2ccco2)c(=O)[nH]1,14.7%
14,O=C(Cn1cnc2c(nnn2Cc2ccc(F)cc2)c1=O)NCc1ccco1,-18.2%
15,CCCCCC(O)(CCN1CCCCC1)c1ccccc1.Cl (stereo not shown),-82.4%
16,Cc1nc2ccc(Oc3ccccc3)cc2s1,5.91%
17,CCn1c(SCC(=O)Nc2cc(C)ccc2C)nnc1-c1cnccn1,-40.5%
18,CN(C(=O)c1ccccc1C(=O)OCC(=O)c1ccc(F)cc1)c1ccccc1,-24.2%
19,COC(=O)c1ccccc1NC(=O)CN(Cc1ccc(Cl)cc1)S(C)(=O)=O,-36.2%
20,Cc1ccc2c(c1)N(CCC(=O)NCc1cccnc1)C(=O)CO2,-0.463%
21,Cc1nc(SCC(N)=O)[nH]c(=O)c1Cc1ccc(OC(C)C)cc1,3.98%
22,Cc1ccc(-c2nc3c(c(=O)[nH]c(=O)n3CC(C)C)n2CC(C)C)cc1[N+](=O)[O-],-7.7%

row,Compound,"hERG current change (%, negative = inhibition) at 10uM"
1,CCOc1ccccc1NC(=O)c1cccc(NC(=O)C2CCCC2)c1,-1.34%
2,C[C@]12CCC3C(CC=C4C[C@@H](O)CC[C@@]43C)C1CCC2[C@]1(C)CCC(=O)O1 (stereo partly shown),3.21%
3,CC(=O)Nc1ccc(SCC(=O)N2CCN(S(=O)(=O)c3ccccc3)CC2)cc1,-19%
4,CSc1sc(C(=O)N(C)C)c2c1S(=O)(=O)N(C)c1ccccc1-2,-2.27%
5,O=C1CCc2cc(S(=O)(=O)N3CCC(C(=O)NC4CCCc5ccccc54)CC3)ccc2N1 (stereo not shown),10.8%
6,Cc1c(NC(=O)c2cccs2)cccc1[N+](=O)[O-],17.3%
7,Cc1ccc(C)c(NC(=O)CN(C)S(=O)(=O)c2ccccc2)c1,-11.2%
8,CCCCN(Cc1ccccc1)S(=O)(=O)c1ccc2c(c1)n(C)c(=O)c(=O)n2C,2.68%
9,O=C(NCCc1c[nH]c2ccccc12)c1ccco1,3.71%
10,Cc1cc(/C=C2/C(=N)N3C(c4ccccc4)=CSC3=NC2=O)c(C)n1-c1ccccc1,-46.6%
11,O=C(NCc1ccco1)/C(=C\C=C\c1ccccc1)NC(=O)c1ccccc1Br,-70.5%
12,Cc1ccc(S(=O)(=O)N2CCN(C(=O)C3CC(=O)N(c4ccc5c(c4)OCCO5)C3)CC2)cc1 (stereo not shown),-10.6%
13,O=C(C1CC1)N1N=C(c2ccc(Br)cc2)CC1(O)C(F)(F)F (stereo not shown),3.54%
14,Cc1cccc(OCCCCc2c(C)n[nH]c2C)c1C,9.64%
15,CN(CC(=O)Nc1cccc(C(F)(F)F)c1)Cc1ccccc1,14.8%
16,C/C(=N\NC(=O)c1ccc(Cl)cc1)c1ccc(N2CCOCC2)cc1,16.9%
17,COc1ccc(CCNCc2cccn2C)cc1.Cl,-9.38%
18,CCn1cc(C(=O)NCC2CCCO2)c(=O)c2cc(S(=O)(=O)N3CCC(C)CC3)ccc21 (stereo not shown),-28.1%
19,COc1ccccc1NC(=O)Cn1cncc1-c1ccc([N+](=O)[O-])cc1,2.57%
20,COc1ccc(NC(=O)c2cc(Cl)ccc2Cl)c([N+](=O)[O-])c1,-1.18%
21,CC(C)[C@H](N[C@@H](C)c1ccccc1)c1c(O)ccc2ccccc12,13.4%
22,COc1ccc2[nH]c(-c3cccc(F)c3)cc(=O)c2c1,18.8%
